Counter-ions that a name gives are not always drawn. ± gives the standard deviation of the averaged measurements. Over roughly 1,300 compounds, “normalised cell viability” has its median near 1; the lowest 2% begin near 0.15. The list shows a part of the results.
System: V-C8 + BRCA2 (BRCA2-proficient hamster cells)
Experiment: normalised cell viability (fraction of plate median); higher = more viable cells (less toxic)
Details: 5 µM
Procedure, shortened: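 Hamster V-C8 cells lacking BRCA2 and V-C8 cells with BRCA2 restored were seeded in 96-well plates. Library drugs (10 mM DMSO stocks) were added 24 h later at 5 μM in 100 μl medium, next to DMSO control wells, for 3 days (screen 1) or 6 days (screen 2). Cell viability was read by resazurin assay, median-plate normalised (modified robust per cent of sample), and triplicate wells were averaged.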

Structure (SMILES)	normalised cell viability (treatment time: 3 days)	normalised cell viability (treatment time: 6 days)
Cn1c(=O)c2[nH]cnc2n(C)c1=O [Aminophylline]	1.14 ± 0.076	1.08 ± 0.035
Cc1ccnc2c1NC(=O)c1cccnc1N2C1CC1 [Nevirapine]	1.03 ± 0.087	1.05 ± 0.047
CN(C)CCC=C1c2ccccc2CCc2ccccc21 [Amitryptiline hydrochloride]	0.926 ± 0.036	0.985 ± 0.098
Cc1[nH]c(=O)c(C#N)cc1-c1ccncc1 [Milrinone]	1.06 ± 0.031	1.02 ± 0.098
C[C@]12CC[C@H]3C(=CCc4cc(O)ccc43)[C@@H]1CCC2=O [Equilin]	1.04 ± 0.092	1.03 ± 0.083
C=C[C@H]1CN2CC[C@H]1C[C@@H]2[C@@H](O)c1ccnc2ccc(OC)cc12 [Quinidine hydrochloride monohydrate]	0.996 ± 0.033	0.972 ± 0.046
Cc1cccc(C)c1NC(=O)C1CCCCN1C (stereo not drawn) [Mepivacaine hydrochloride]	1.13 ± 0.18	1.04 ± 0.028
CN1C(C(=O)Nc2ccccn2)=C(O)c2sccc2S1(=O)=O [Tenoxicam]	1.04 ± 0.016	0.973 ± 0.022
Cc1ncc([N+](=O)[O-])n1CC(O)CCl (stereo not drawn) [Ornidazole]	0.996 ± 0.069	0.9741 ± 0.0077
COc1cc2c(cc1OC)C(=O)C(CC1CCN(Cc3ccccc3)CC1)C2 (stereo not drawn) [Donepezil hydrochloride]	1.007 ± 0.0092	1.05 ± 0.074
CCCCC(CC)CN1CN(CC(CC)CCCC)CC(C)(N)C1 (stereo not drawn) [Hexetidine]	1.03 ± 0.044	0.997 ± 0.093
O=C(CCCN1CCC(O)(c2ccc(Br)cc2)CC1)c1ccc(F)cc1 [Bromperidol]	0.976 ± 0.027	0.979 ± 0.038
CC(=O)c1ccc2c(c1)N(CCCN1CCC(CCO)CC1)c1ccccc1S2 [Piperacetazine]	0.941 ± 0.085	0.919 ± 0.087
CO[C@@]1(NC(=O)Cc2cccs2)C(=O)N2C(C(=O)O)=C(COC(N)=O)CS[C@@H]21 [Cefoxitin sodium salt]	1 ± 0.024	1.05 ± 0.037
COc1cc(Cc2cnc(N)nc2N)cc(OC)c1OC [Trimethoprim]	1.05 ± 0.019	1.07 ± 0.027
COCC1=C(C(=O)OC(C)OC(=O)OC(C)C)N2C(=O)[C@@H](NC(=O)/C(=N\OC)c3csc(N)n3)[C@H]2SC1 (stereo partly drawn) [Cefpodoxime proxetil]	1.03 ± 0.046	1.01 ± 0.05
CCN(CC)CCOC(=O)C(c1ccccc1)C1CCCCC1 (stereo not drawn) [Drofenine hydrochloride]	1.02 ± 0.066	1.02 ± 0.025

Structure (SMILES)	normalised cell viability (treatment time: 3 days)	normalised cell viability (treatment time: 6 days)
N[C@@H]1CCCCN(c2c(F)cc3c(=O)c(C(=O)O)cn(C4CC4)c3c2Cl)C1 [Besifloxacin hydrochloride]	1.04 ± 0.049	1.03 ± 0.021
CCOc1ccccc1OCC1CNCCO1 (stereo not drawn) [Viloxazine hydrochloride]	0.994 ± 0.032	1.01 ± 0.072
CC[C@H]1OC(=O)[C@H](C)[C@@H](O[C@H]2C[C@@](C)(OC)[C@@H](O)[C@H](C)O2)[C@H](C)[C@@H](O[C@@H]2O[C@H](C)C[C@H](N(C)C)[C@H]2O)[C@](C)(OC)C[C@@H](C)C(=O)[C@H](C)[C@@H](O)[C@]1(C)O [Clarithromycin]	1.02 ± 0.053	0.997 ± 0.081
CCCCC1=NC2(CCCC2)C(=O)N1Cc1ccc(-c2ccccc2-c2nnn[nH]2)cc1 [Irbesartan]	1.01 ± 0.031	1.04 ± 0.058
CCCCOC(=O)c1ccc(N)cc1 [Butamben]	0.83 ± 0.12	1.06 ± 0.029
N=C(N)NC(=O)c1nc(Cl)c(N)nc1N [Amiloride hydrochloride dihydrate]	0.884 ± 0.1	0.98 ± 0.038
O=C1NCN(c2ccccc2)C12CCN(CCCC(c1ccc(F)cc1)c1ccc(F)cc1)CC2 [Fluspirilen]	0.663 ± 0.036	0.405 ± 0.069
CC(C)(C)C(=O)OCOC(=O)[C@@H]1N2C(=O)[C@@H](NC(=O)[C@H](N)c3ccccc3)[C@H]2SC1(C)C [Pivampicillin]	1.01 ± 0.022	1.01 ± 0.013
Cc1cc(C2CCCCC2)n(O)c(=O)c1 [Ciclopirox ethanolamine]	0.203 ± 0.0053	0.206 ± 0.014
COc1cc(C(=O)NS(=O)(=O)c2ccccc2C)ccc1Cc1cn(C)c2ccc(NC(=O)OC3CCCC3)cc12 [Zafirlukast]	1.06 ± 0.012	1.03 ± 0.031
NS(=O)(=O)c1cc(C(=O)O)c(NCc2ccco2)cc1Cl [Furosemide]	1.1 ± 0.027	1.08 ± 0.072
NC(=O)c1ncn([C@@H]2O[C@H](CO)[C@@H](O)[C@H]2O)n1 [Ribavirin]	0.614 ± 0.068	0.517 ± 0.028
CCOc1ccc2c(c1)C(C)=CC(C)(C)N2 [Ethoxyquin]	0.823 ± 0.025	1.05 ± 0.14
CCOC(=O)[C@H](CCc1ccccc1)N[C@@H](C)C(=O)N1[C@H](C(=O)O)C[C@@H]2CCC[C@@H]21 [Ramipril]	1.05 ± 0.073	1.04 ± 0.049
CC(C)COCC(CN(Cc1ccccc1)c1ccccc1)N1CCCC1 (stereo not drawn) [Bepridil hydrochloride]	0.938 ± 0.069	0.828 ± 0.035
NS(=O)(=O)c1cc2c(cc1Cl)N=CNS2(=O)=O [Chlorothiazide]	1.16 ± 0.04	1.05 ± 0.045
CNS(=O)(=O)Cc1ccc2[nH]cc(CCN(C)C)c2c1 [Sumatriptan succinate]	1.05 ± 0.03	0.992 ± 0.031

Source: the supplement of paper PMC6609913
